# Reference: PMC10726135
# This is one part of the list. At the low end of the ranking, values are background and their order means little. The protein was read in a cell extract, so binding may be indirect.
# Molecular target: T1, HNF4alpha2 (COS-7 nuclear extract) (UniProt P41235)
# T1 sequence: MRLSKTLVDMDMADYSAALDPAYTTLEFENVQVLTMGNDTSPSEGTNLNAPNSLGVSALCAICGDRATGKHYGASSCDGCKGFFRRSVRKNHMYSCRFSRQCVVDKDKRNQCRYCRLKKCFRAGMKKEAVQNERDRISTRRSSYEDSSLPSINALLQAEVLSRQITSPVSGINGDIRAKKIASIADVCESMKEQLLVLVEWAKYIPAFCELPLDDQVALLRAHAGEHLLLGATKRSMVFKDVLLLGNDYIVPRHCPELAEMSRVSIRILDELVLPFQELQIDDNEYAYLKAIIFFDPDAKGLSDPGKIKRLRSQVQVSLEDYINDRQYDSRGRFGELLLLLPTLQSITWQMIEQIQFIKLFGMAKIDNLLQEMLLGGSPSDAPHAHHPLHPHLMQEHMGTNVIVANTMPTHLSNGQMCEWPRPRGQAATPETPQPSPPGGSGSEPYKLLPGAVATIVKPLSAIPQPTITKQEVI
# Experiment: protein-binding microarray
# Details: COS-7 nuclear extract on double-stranded Agilent 4x180k PBM; binding buffer, salt, pH and temperature not given; high values mean tight binding; double strand, one strand shown; sequences stand for … in …GCCTAGGGAGATTAGAGTATCGGTCGA
row,Sequence,binding signal (log2 normalized intensity)
1,TTAACCTTTGCTCTCTGAAATGAAGGTCAG,3.65
2,GTCAAAACTTTGTTTGAGTTCCAAAGTCCA,6.99
3,AGTGTAAATATTTGAGGACACAAAGTGGAC,2.09
4,GGTCTCTCACCTGGCTTCCCTTTGATCTTT,3.09
5,GGAGCTCGGCGCCAGGAAGCAATGGCCCTC,-1.08
6,GCGCTCCCTGTTTAGAATTCTGCCTCCCCC,4.96
7,ATTTAAGACGAGTGGTTTGAGGTCACATAG,1.55
8,GCTCCTGGGCCCAGATATACAAGAAAGAAA,-0.62
9,GAGAAAATTCTAGATAACTCCAAGATTAGT,-1.26
10,CGCTTGGCTCAGGCCGGTTGGCCAGGTTCC,-1.29
11,TGCCTGCCCTCTCCATGCAGACAGTCCCTC,-0.326
12,AAGTAGACAGATCAGAGAGATTTTCACATG,-0.547
13,TCAGGAGCCCCACAGAGCAAAGGTCATGCA,5.38
14,TGGAAATGCAAACACCTACATTCAAATCCT,-1.15
15,GACCATCACCACTTCAAGCTTGGTATGCTT,-0.749
16,CGCGAGCACCGCGCGCGCAAAGCGGGGGCG,-1.19
17,TCTTTTGATAACTGATCTCTGGCTTGATCC,-0.0246
18,TCTGTCTGAGACCACTTAAGCCTGGAATTC,-0.552
19,CTGGGTGAGCCGCACACCGACTTGCACCAG,-1.12
20,ACTGTAAACCAGCAGTATCTTTGTGTCACC,0.469
21,CCCACGGTCAGGACTTGATGATTGACACTA,-1.01
22,AAGTCTTAGCTCATTTCAGCCTTAACTCAA,-1.1
23,GCAGAAGCAGAGAGAAACTTTGGAAGTAGG,-1.25
24,TCACGTACCGGCTAGACAAACAGCTTCTGT,-1.05
25,AGCAGGCAGAGGTCAATGTCCACACCCCAG,4.6

row,Sequence,binding signal (log2 normalized intensity)
1,TAAAACACAAATCTCCACAAACATACAACC,-1.22
2,CTGCACCTTGAAACCCCTCCTTACAGTGCC,2.34
3,CTCCTGGATTGCAGGTAAACACAGTGATGG,1.21
4,AGCAGGTGACCTTCGATCACCTCAAGAAAG,3.8
5,AAGTTTGAAAATGCCTTGAACTATTCACTG,-1.1
6,AGGGGGAGGAGAGTACTGTCTCTTATCAGC,-1.21
7,GCCGAGAGCGGCTCGTTGGTCTAGGGGTAT,-1.24
8,AGGCTCCCCTAATCCCTGTGACATTTTCAG,1.28
9,GATAATCACCCGATAAGCTGACCCCAAAAC,4.68
10,TATTTGTTTTCTGTCTTCATCCTGAGAGGG,-0.496
11,TGCAAGGAAATGGATTGCCTCCTAAGGCCT,-1.2
12,AGACAACCTTTGTTCACAGTGACGTTCTGC,1.51
13,GATCAAAGTTCATTGTAGCCTCAAATTCCT,3.55
14,ATAGCGCCCACACTGCCCATCCCCACTGAA,3.46
15,TAAACAGAAGAAAGGGGCTAGGGCAAAGAT,-1.06
16,GGCTGGTTTAACTGACCCAGGGAGAAAGGT,-1.1
17,GATTGTCACAAGACTGTTATCACAGCTGGC,-0.883
18,CAAAGACTAATGCATTCCCAGCAAGTGAAG,-1.11
19,GTCTAAGCTAGTCATAGCTGGGTTTCCAGC,-0.824
20,TTATCAGCTGCTAAGTCTTTCCACACAGCC,-1.14
21,TGCTTATTTCCCATCAAGGATCAAGGACCT,-0.85
22,GAGTTCAAAGGATACAGATAAATAAATCAA,-1.07
23,GATCCTCATTTCCCCATTCCTAAGTTCCAA,1.72
24,TGGAGAATGGATCTAAGGACAAAGTCCAAG,6.12
25,AAAATCACACTGGGAATTGGGATGGCAGCT,-1.15

row,Sequence,binding signal (log2 normalized intensity)
1,GTTGAGGTAGAGGGACACTGATAACATGAG,-0.141
2,CCAGTTTCTCAACAGACCCCTGAATTGGTC,1.85
3,CAATGTGCTCATCCATAAAATGGGGTAATG,0.755
4,AAAGAGAGAGTTAGTTCTGCAAACACCCCT,1.19
5,TCTCTGAGCAGTGAATGTTGAAGTCCCACG,1.02
6,TAACCCCCTTGTCTTCCTCAAATTACAAAA,2.36
7,CCCAGATGGGCTGGCAGAGGGGATCAAGTG,-1.1
8,GAAAACCTTGTCTAAGCCCTTATCAAAAAG,-1.1
9,GAGGGCAACCTTTGAACTGGGTCTTAATAA,3.53
10,TGACACCTAGCTGAGCAGGGGACTAAGAGC,-1.06
11,TGACTGATTCCTGCTGAGAGAGCAGGTTGA,0.56
12,CTGTCCCTCAGTGTGGGACTTTGGTCTGCT,4.15
13,GCAGAAAACGCAATTGCCCTACAGCTCCTG,-1.11
14,ATTCCAAGAAGGCAGACTCAAGATAGAGGG,-1.09
15,AGCTGTTATCTTGGTGCCTGCAGAGCCTCC,-0.0827
16,ACCAAGTACCGCAAACAAGGTGGCTTGAAA,-1.16
17,TTGGAGAAAAAAAACCATTGCAAATTGGAT,-0.388
18,GGCCAAAGTACGCTCCACCCCTCAGCCTTT,3.58
19,GCGGCTCCGGGAGCTGGCGGCGCGGCCGGA,-0.587
20,CCGGAGAGGCTTATTCCGTACAAGGATTCA,-1.13
21,CAAGCCTGCCGAGGTGTCCTGTAAATAGTG,0.465
22,ACGCTGTTGTCTGTGACTGGGGTCAAACTC,3.88
23,TTGCAATAAAAGATTGCATCTGTTTTTATT,-1.05
24,AGCAGGCCTCGGGCCTGCGAGGTTACAGGG,0.483
25,CTAACATTCAGAGGTCAGGGGAGAGAGGCA,-1.09

row,Sequence,binding signal (log2 normalized intensity)
1,CCCAAAGGCATGAATAGAATGCAACCAAGT,-1.21
2,ATCCGCTAATGACACCAGGGAACACACCAT,-0.7
3,GAGGTGACCCTTGCACTCATACTTGAAGAC,3.57
4,CCCTCAGGGATCTTTGCACTTGATGTTCCC,1.67
5,TCAGGTAAAGATATGGAACACTTTCAGAGA,-0.411
6,TCCAGGAGGGGAGGAGGGTCAAAACTTCAG,-1.16
7,AAGGCCTTAAAGTGTAAATATTTGAGGACA,0.773
8,CCAAACTGGTTTCTCCGCTCGGGGAGGTGC,-1.12
9,TCTGACCCATTCCTTCTCACCGGGTGGAGC,0.981
10,ATCATCTACTATGTGCCAGACACTGCTCTA,-1
11,CCATTGTATGAGGGTGAAGTTTGGCAATTA,0.209
12,TTAGTTCTTTGTAGGAAGGCTTTGAAGTCT,1.31
13,TCCAGACTTTGTACAAGGGCACTAGCTCTT,-0.263
14,ATTCCTACTAATTTTGTTTCCTAGTTCAAA,0.0056
15,GAGGAGGCCTTTCCTGACCCCTCCTCCCCC,5.59
16,GTGGATATTGGGAGGCCCATTGTGCTGGGG,0.343
17,GCCAGGCAGGACAGTTTTGTGTGTTTAATG,1.37
18,AGCCCTGTTGACATCTTGATTTAGCCCAGT,0.816
19,TTTGATGGACATTGCTGGTGGTGGTAGATC,1.34
20,CTCATTCTTGGAATGCATTGCAAGTCGTAT,1.17
21,CCTGTTAAAAACACGAGCTATTGCGAGGTT,-0.496
22,TTTTCTATTTCCACTGAGGTCAAGATAAGA,1.43
23,TGGAATTTGAACCTACACCTATGTGGTCAA,2.3
24,GCTCATTCCCTAGGGCTCGGCATTCAGACA,-1.07
25,TAACCTGCTCTCTCATGCCCTTTGCCTCCC,4.41

row,Sequence,binding signal (log2 normalized intensity)
1,TCTTTCCACACAGCCTGTCAAAGGGAGAAA,-0.976
2,GAAGGTGCTCAGAAAATTGATTCTAATCTC,-1.06
3,AATGCACCCAGAACCCCCAGGTCACCCACA,4.82
4,ACTGGGGACTAGTAGAGTGGGGAGGTAGGG,-1.27
5,AGGTCACATAGCAGGCATACCAGGCAGAGG,-1.15
6,AAAAGCAGGCAACCAAGGGTACACACCGTT,-1.02
7,CACCTTCTACACAGCACCCCTTGCAAATAA,2.14
8,AATGCCAGGACCCTGTGGGACTGGTTTCAA,-1.12
9,CTGGACTTTCCTTTGTTGGGAGACTTTTTA,1.63
10,GTCTCCAGCCCCCAGAGGTCACACTGATAC,3.45
11,TCCAAAGCCTCATCTGAGATAAGGCAAGTC,-1.27
12,GTCCAAGTTGGTGAGAACAGAGTCTCCGAG,0.206
13,AATAATTTGAAGTTTAGAGATGCCTATAGG,0.625
14,CAGTGCTGACCTACCTGACCTGGCATACTA,-1.02
15,CCCACAGTGCATCTGATAAGGTTGTTAAGT,1.79
16,AACAATGCAAGATAAAAGTGAGCAATGCTG,-1.25
17,GCAGGCAGAGGAACAGAGGGGTCTGAGCAC,-1.12
18,GAAGAAGTCATCCATCATTCATACATTTGC,0.488
19,TGGAGTTAGCTGTCTTTCTGATAAGATTGG,1.11
20,AAGGGATCAGAAATTGATTTGTAACCTGCA,0.445
21,ATTTGTGAAGGTGAATTTCAAGAATCTAAT,-0.602
22,CCATTTTGGACTTTGACCTCCAAAATTATA,10.4
23,GTCACAGCCTGGTTCTTGTAGGCCCCTGTG,0.117
24,TTCTCTCAACCTCTCTGGGGGATGGGTCCA,2.62
25,AAAGGGAATTTTGGACAAGGTAACCCCCAA,3.9

row,Sequence,binding signal (log2 normalized intensity)
1,GCTGCCAAGCGTCAGTCATACAGAGCTGTC,-1.13
2,CAAAGTTCAAGGTCCAGCCTACCCACCCAC,4.66
3,GGCCCTTTGCAGCCCGAGCTGCTGGAACAG,-1.15
4,ATGCAACCTTTGTCCTCATTGAGCCCTCCC,3.55
5,GGTGAAGGATGGAATGCTGAAGGGAAGGCT,-0.887
6,TAAGCAAACATTCCTCCCTCCCTCTTCCCT,2.6
7,GAAGTACAACTTCAGCAATGAAAGATGTTT,-0.299
8,GGTGAGGGTGAGGGTGAGGGTTAGGGGTTA,-0.0851
9,CTTTCAGCCTCTCTGCAAACATTTATTTTG,0.367
10,AGGACCTGACATTCTCCACTTGGTGACTGT,0.935
11,GAGATCAGGTCTCTTTTATGTACCACCGTA,0.641
12,GAGGGTAACAATGCTGATGGGGACCACAGA,-0.887
13,ATAGCTCAGGTCCAAGGAACCTCACGCGCT,-1.02
14,GTCGACCTTTAAACGTTTGCTGGATCAGCA,1.64
15,TTATGATATGAAGCATTGCTTGAGTCACTT,1
16,TTTGAAGGTTAAAGTCCATTTTTGAGGACC,5.44
17,CAAGTGCCAACAAACTCAATCCTGGCCTCT,-0.92
18,TGCTGTGTGTGTGTGTGTGTGTGTGTGTGT,3.59
19,GGAGGTTCTTGTTTAATTCTTTTCAACTGG,1.57
20,AGTATATTGGCTTGGCTGTGTCCCTTGACC,3.04
